# In paper PMC4336329 (PLoS ONE, 2015):
# Hit rate of the full screen: of about 310,000 compounds, about 2,200 (0.71%) showed an effect of 50% or more. The effect is printed as a negative number. Some of the results follow.
# Target: human ether-à-go-go-related gene (hERG) potassium channel (human, UniProt Q12809)
# Test: primary screen, population patch clamp on CHO cells stably expressing hERG
# Sequence of human ether-à-go-go-related gene (hERG) potassium channel (Q12809 whole entry, looked up): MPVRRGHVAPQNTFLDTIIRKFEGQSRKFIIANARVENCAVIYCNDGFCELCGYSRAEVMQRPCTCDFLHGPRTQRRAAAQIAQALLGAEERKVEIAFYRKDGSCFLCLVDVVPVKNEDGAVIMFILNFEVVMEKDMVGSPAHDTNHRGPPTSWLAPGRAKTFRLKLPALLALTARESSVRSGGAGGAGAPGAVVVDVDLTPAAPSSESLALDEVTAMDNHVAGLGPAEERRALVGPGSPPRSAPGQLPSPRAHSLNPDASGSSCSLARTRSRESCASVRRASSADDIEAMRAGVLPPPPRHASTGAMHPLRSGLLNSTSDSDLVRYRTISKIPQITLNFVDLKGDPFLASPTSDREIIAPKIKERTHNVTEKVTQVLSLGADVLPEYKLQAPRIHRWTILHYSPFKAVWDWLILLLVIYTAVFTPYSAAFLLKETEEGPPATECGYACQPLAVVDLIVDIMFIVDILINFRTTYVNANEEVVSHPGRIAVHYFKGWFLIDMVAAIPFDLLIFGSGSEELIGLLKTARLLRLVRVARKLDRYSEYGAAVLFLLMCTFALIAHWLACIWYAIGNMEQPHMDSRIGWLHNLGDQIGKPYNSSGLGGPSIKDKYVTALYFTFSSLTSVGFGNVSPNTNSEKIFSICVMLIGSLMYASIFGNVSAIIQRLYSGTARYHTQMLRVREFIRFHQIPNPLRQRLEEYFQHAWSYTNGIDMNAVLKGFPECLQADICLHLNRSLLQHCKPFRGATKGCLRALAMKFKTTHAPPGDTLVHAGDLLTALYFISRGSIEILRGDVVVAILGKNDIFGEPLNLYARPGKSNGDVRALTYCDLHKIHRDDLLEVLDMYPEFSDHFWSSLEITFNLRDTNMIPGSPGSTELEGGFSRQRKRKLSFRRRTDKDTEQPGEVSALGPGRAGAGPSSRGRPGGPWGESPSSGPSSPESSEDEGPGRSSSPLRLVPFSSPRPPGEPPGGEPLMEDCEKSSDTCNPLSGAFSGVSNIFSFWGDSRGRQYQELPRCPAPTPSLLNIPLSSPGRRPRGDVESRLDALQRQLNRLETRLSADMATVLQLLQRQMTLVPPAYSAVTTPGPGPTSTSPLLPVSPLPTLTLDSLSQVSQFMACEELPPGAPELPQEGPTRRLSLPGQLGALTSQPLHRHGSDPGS
row,SMILES,"hERG current change (%, negative = inhibition) at 1uM"
1,CCCc1ccc(-c2ccc(C(=O)O)cc2)nc1,12.3%
2,COc1ccc(C(=O)NC(=S)Nc2ccc(CN3CCOCC3)cc2)cc1,3.79%
3,CC(=O)/C(C#N)=C1\NC(=O)C(Cc2ccc(C)c(C)c2)S1 (stereo not shown),8.94%
4,CCc1ccc(C(=O)COC(=O)CCc2nc3ccccc3c(=O)[nH]2)cc1,8.69%
5,C=CCc1cc(OC)ccc1OCCN(C)Cc1ccccc1.O=C(O)C(=O)O,5.86%
6,CCC(C)NC(=O)CN(c1ccc(OC)cc1)S(=O)(=O)c1ccc(NC(C)=O)cc1 (stereo not shown),-4.93%
7,O=C(CNC(=O)N1CC(=O)Nc2ccccc21)Nc1nccs1,14.9%
8,O=S(=O)(c1cccs1)N1CCN(c2ccccc2F)CC1,4.98%
9,Cc1ccccc1OC(C)C(=O)N1CCC(Cc2ccccc2)CC1 (stereo not shown),9.12%
10,O=C(Cc1ccccc1)Nc1cccc(C(=O)O)c1O,8.24%
11,S=C(NC1CCCC1)NC1CCCC1,14.9%
12,Cc1cc(OC(=O)N(C)C)n(-c2ccccc2)n1,9.41%
13,CN(C)S(=O)(=O)c1ccc(NCC2COc3ccccc3O2)c([N+](=O)[O-])c1 (stereo not shown),6.19%
14,CC(C)C(C(=O)NCc1ccco1)N(C(=O)CNS(=O)(=O)c1ccc(Cl)cc1)C1CCCC1 (stereo not shown),5.77%
15,COC(=O)Cc1cc(=O)n(-c2nc3ccccc3[nH]2)[nH]1,-22.9%
16,COc1ccc(NC(=O)C2CCCN(c3nc(C)cc(C)n3)C2)cc1 (stereo not shown),15.1%
17,CC(C)CN(C(=O)C1CCCCC1)C1CCS(=O)(=O)C1 (stereo not shown),8.28%
18,CCNc1nc2c(c(=O)n(Cc3ccccc3)c(=O)n2C)n1Cc1ccccc1,-6.61%
19,CSCCC(NS(=O)(=O)c1ccccc1F)C(=O)N1CC=C(c2ccccc2)CC1 (stereo not shown),15.1%
20,COc1ccc(CCn2c(=N)c(C(=O)NCC3CCCO3)cc3c(=O)n4cccc(C)c4nc32)cc1OC (stereo not shown),-87.1%
21,CCOC(=O)c1ccc(NC(=O)CSc2nnc(CNc3ccc(C)cc3)n2C)cc1,13.6%
22,CN1C(=O)NC(=O)/C(=C/c2ccc([N+](=O)[O-])o2)C1=O,13.9%
23,CC(CC1CC(C)(C)OC1=O)C(=O)Nc1ccc([N+](=O)[O-])cc1 (stereo not shown),-33.3%
24,Cc1c(C)c2c(OCC(=O)N3CCC(O)CC3)cc3c(c2oc1=O)CCC(C)(C)O3,0.56%
25,CCCCC1(CC(=O)OCC)C(=O)N(c2ccccc2)N(c2ccccc2)C1=O,2.83%
